Test results: a compilation of properties of binary mixtures (doi:10.1016/j.molliq.2021.118200)
Some of these densities may be calculated back from excess volumes.

Test: xn = mol fraction of the nth substance listed
Conditions: 100 kPa

CCC(=O)[O-].COCCn1cc[n+](C)c1 + O
mass density [kg/m3]
Conditions	288.15 K	293.15 K	298.15 K	303.15 K	308.15 K	313.15 K	318.15 K
x1 = 0.8277	1115.3	1111.9	1108.5	1105.2	1101.8	1098.4	–
x1 = 0.8546	1115.4	1112.1	1108.7	1105.4	1102	1098.6	–
x1 = 0.8822	–	1112.2	1108.9	1105.5	1102.1	1098.8	1095.4
x1 = 0.9145	1115.7	1112.4	1109	–	–	1099	1095.6
x1 = 0.9457	–	1112.5	1109.2	1105.8	1102.5	–	1095.8
x1 = 1	–	1112.7	–	1106	1102.8	1099.5	1096.1

CC(=O)[O-].COCCn1cc[n+](C)c1 + O
mass density [kg/m3]
Conditions	288.15 K	293.15 K	298.15 K	303.15 K	308.15 K	313.15 K	318.15 K
x1 = 0.8396	1138.6	–	1131.9	1128.6	1125.2	1121.9	1118.6
x1 = 0.8663	1139	1135.7	1132.3	1129	–	1122.3	–
x1 = 0.8945	1139.4	–	1132.7	–	1126	1122.7	1119.4
x1 = 0.9225	1139.7	1136.4	1133.1	1129.8	1126.4	1123.1	1119.7
x1 = 0.9511	1140	1136.7	1133.4	1130.1	1126.7	1123.4	1120
x1 = 1	1140.5	1137.2	1134	1130.6	1127.3	1124	1120.6
